Source: the RNAGym collection of RNA variant scans (doi:10.7554/elife.90254)
The source gives no read counts; variants with many changes may rest on few reads.

B1: LINE1-full (parent)
chain: UACGUAGGUGGUUUUCCCCUGAUAGUGCUAAGGGGGCCUGGAAGUUUGGACUGGGCAGAGCUCAACACAGCGUGGCAAAGUGGCUGUGGCUAGACUGCCUCUCUGGAUUCCUCGUCACUCAGCAGGGCAUCUCUGAGAGAAAUGCC

Variants of: B1
Assay: self-cleavage, relative activity (ratio to wild type); higher = more cleavage; in vitro, sequencing; the parent is a self-cleaving ribozyme
For U12C A43G U96A, the self-cleavage was 0.06. Variant U12C U14C U119C has a self-cleavage of 0.51. G11A U13A U14C gave a self-cleavage of 0.89. Variant U12C A57U U73G has a self-cleavage of 0.17. Variant U12A U13G U62C U96C has a self-cleavage of 0. Variant U12C A59U U109C has a self-cleavage of 1.36. For U12C A42G A142G, the self-cleavage was 1.8. Variant G10U A136G C146U has a self-cleavage of 1.36. In the case of U12C A31G U134C, the self-cleavage is reported as 0.06. In the case of U12C G34C U47G, the self-cleavage is reported as 1.47. U12C A79G U132A showed a self-cleavage of 1.81. U12C U39C A79G gave a self-cleavage of 1.28. Variant U12C G32U A69G U108C has a self-cleavage of 0.15. Work on U12C A31U A57U U62C A129G yielded a self-cleavage of 0. U12C U13C G144A gave a self-cleavage of 1.1. Variant U12C U46C U109C A141G has a self-cleavage of 1.8. For U12C G55A U91A, the self-cleavage was 0.6. For U12C G35A G58A U73C A140U, the self-cleavage was 0.02. With U12A C61U A69G A107U U115A the self-cleavage was 0. In the case of U12C A57U U62C A107G, the self-cleavage is reported as 0. Variant U12A A65G U108C U115A has a self-cleavage of 0.51. Work on U12C A57G A69U U96A yielded a self-cleavage of 0. Work on U12C G21U U39C U100C A124G yielded a self-cleavage of 1.84. Work on U12C A79G A129G yielded a self-cleavage of 1.23. Variant U12C U73C A79G A121G has a self-cleavage of 2.3. U12C A141G U143C gave a self-cleavage of 1.51. Variant U12C U102C A142C has a self-cleavage of 1.23. Variant U12C G40A U46C A50U A59G A69G U91C has a self-cleavage of 1.53. U12C U15C A43U gave a self-cleavage of 1.09. For U12C U20A U45C, the self-cleavage was 1.53. U12A G36C A57G G70A A92G U115G A129U gave a self-cleavage of 0. Variant U12C U23A G36C U100A has a self-cleavage of 0.55. U12C U108C A141G gave a self-cleavage of 1.3. Work on U12C U20A A78G yielded a self-cleavage of 1.24. U12C A57G U91C U112C G114A U143C showed a self-cleavage of 0.38. Work on U12C A24G C51A U62A U109C U130C yielded a self-cleavage of 0. In the case of U12C A69C U115C, the self-cleavage is reported as 0. Variant G10U U13A U108C U115C has a self-cleavage of 1.72. In the case of U12C U47C U108A, the self-cleavage is reported as 1.11. In the case of G11A G54C A64U, the self-cleavage is reported as 0.24. For U12A U119C A136G, the self-cleavage was 2.04. With U12C U14C A141C C145U the self-cleavage was 1.4. For G11A U62A A77G U143C, the self-cleavage was 0. U12C U13A U62C U81C U100A U112A U132A gave a self-cleavage of 1.15. U12C U47A U87C A121G gave a self-cleavage of 0.3. U12C U23C U39A gave a self-cleavage of 0.97. U12C G35A A77G gave a self-cleavage of 1.97. In the case of U12A U23C A136G, the self-cleavage is reported as 1.87. In the case of U12C G53A U100C C111A A124G, the self-cleavage is reported as 0.41. Work on G11A A64U A121U A129U A136G yielded a self-cleavage of 0.39. Work on U12C U15C A57G C95U U104A yielded a self-cleavage of 0.07. U12C U26C A67U A138G gave a self-cleavage of 0.27. U12C G32C U47C gave a self-cleavage of 1. In the case of U12C U20G A138G, the self-cleavage is reported as 1.08. Variant U12C A77U C90U has a self-cleavage of 0.06. In the case of U12C A136G G144U, the self-cleavage is reported as 1.31. U12A U15C A69G showed a self-cleavage of 0.42. For U12C U20A U47C G82A U104A, the self-cleavage was 1.2. For G11C A69U U96A, the self-cleavage was 0.01. U12C U45G C113U A138G showed a self-cleavage of 1.58. U12C A77U A141G gave a self-cleavage of 1.66. U12C C56U A64G A69G U104A gave a self-cleavage of 0.05. With U12A C71U U96A the self-cleavage was 0.07. U12C C28U U62A A69G gave a self-cleavage of 0.1. In the case of U12A A24U U46C A64G U81A A138U, the self-cleavage is reported as 0.92. For U12C C28U A79U G80U, the self-cleavage was 1.05. In the case of U12C U26C U39A A107G A138G, the self-cleavage is reported as 1.84. Variant U12C A24G U115C has a self-cleavage of 1.02. With U12C U26C G33A A67U A77U the self-cleavage was 0.14. U12C U47C A57U A129U gave a self-cleavage of 0.31. U12C G54A A64G A121G A136G gave a self-cleavage of 0.21. U12A U112C U130A showed a self-cleavage of 1.07. For G11A A30G A43G U47A U85C U134C, the self-cleavage was 0. With U12C U102A U132C the self-cleavage was 2.44. Variant U12C G74A U87C has a self-cleavage of 0.13. For G11C A22G A117U, the self-cleavage was 0.72. U12C U15C U26A A64G U96A gave a self-cleavage of 0. U12C A42G A67G U143A gave a self-cleavage of 0. For U12C U52C A142G, the self-cleavage was 1.56. U12C U62C A140G gave a self-cleavage of 0.09. With G11C A64G A65G U134A the self-cleavage was 0. With G11A G33A A64G A78G U91C the self-cleavage was 0.19. For U12C A136U G144U, the self-cleavage was 1.25. In the case of U12C U15A U87A A138G, the self-cleavage is reported as 0.14.
